According to the supplement of paper PMC3334620:
Whole data set: some 33,000 sequences, median “E-score (-0.5 to 0.5)” near -0.013, cut for the highest 2% near 0.3. The list shows a part of the results.

target: T1, Msn1 (UniProt P22148); assay: PBM E-score (8-mer binding enrichment) (E-score (-0.5 to 0.5)); higher = stronger / more preferred TF binding; most listed sequences are background and not binding sites; conditions: protein concentration: 200 nM; construct: GST-full length
T1 sequence: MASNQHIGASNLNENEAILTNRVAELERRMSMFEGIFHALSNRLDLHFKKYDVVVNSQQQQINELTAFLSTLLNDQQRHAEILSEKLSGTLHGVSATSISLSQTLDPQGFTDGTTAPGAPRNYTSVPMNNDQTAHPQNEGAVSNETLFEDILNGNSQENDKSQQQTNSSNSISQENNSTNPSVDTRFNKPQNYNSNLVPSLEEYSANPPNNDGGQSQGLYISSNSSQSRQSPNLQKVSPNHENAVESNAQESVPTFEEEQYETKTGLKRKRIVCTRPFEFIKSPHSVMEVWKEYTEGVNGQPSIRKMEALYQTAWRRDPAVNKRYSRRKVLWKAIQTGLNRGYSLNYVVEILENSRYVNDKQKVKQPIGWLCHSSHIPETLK
Procedure, shortened: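 Each ungapped eight-base word and its reverse complement, pooled, received an E-score from the Universal PBM Analysis Suite. Underlying scans, normalised with masliner, recorded fluorescent anti-GST bound to GST-tagged yeast transcription factors. These were applied at about 100-200 nM to universal all-10-mer Agilent arrays double-stranded by primer extension.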

| Sequence | PBM E-score |
| --- | --- |
| CGAGGATA | -0.111 |
| AAGCCTAT | -0.122 |
| GAAGCGAC | 0.0716 |
| ATCGTGGA | 0.0781 |
| CTAGCGGC | -0.338 |
| GTAGCTAA | -0.198 |
| CAGGCAGA | -0.0321 |
| AGAGGGTG | -0.223 |
| GCCGCGTA | -0.0693 |
| AACTGGTC | 0.0678 |
| AGTAGGCC | -0.0938 |
| CATGCCTC | -0.0203 |
| AGCCTTCG | -0.227 |
| CATGCTCA | -0.0943 |
| CCATAGGG | -0.23 |
| CTAAGTGC | -0.114 |
| TGCAAGCA | -0.138 |
| CGTCATTC | 0.106 |
| AGTCGTCG | -0.218 |
| GTCTGCGA | 0.118 |
| AGATGATC | 0.02 |
| ATGCGCAA | -0.0413 |
| ATTATCCC | 0.161 |
| ACCAGCTA | 0.052 |
| ACTGCCCA | -0.104 |

| Sequence | PBM E-score |
| --- | --- |
| CGTGAAAG | 0.241 |
| CAGGACCA | -0.0434 |
| ATCCATGA | -0.133 |
| CCGTGGCC | -0.226 |
| CTGAAAAG | -0.112 |
| GAGCGTAC | -0.0192 |
| ATTGCCAC | 0.0127 |
| AGCGATTA | -0.00328 |
| GAACGTTC | -0.0109 |
| AGCCGAAG | 0.105 |
| CTGAGCAA | 0.108 |
| CCTTGCAC | 0.00743 |
| GAGTGAAA | 0.0469 |
| GACGTCTC | 0.0471 |
| ATCGTGCC | 0.0402 |
| TCCAACCA | 0.0602 |
| ATCTAGGG | -0.0588 |
| AGGCTCCC | -0.276 |
| CAGATCTC | -0.0567 |
| ATTTAGGC | 0.144 |
| AACCAAAC | -0.136 |
| AGCACACC | -0.266 |
| ACCAAAAA | 0.21 |
| ACCCCGGT | -0.218 |
| ATCCTAGG | -0.0767 |

| Sequence | PBM E-score |
| --- | --- |
| CCTACAGA | -0.16 |
| AATGGGGT | -0.0154 |
| CTGGAGCC | -0.205 |
| ATTTGGGC | 0.0292 |
| GCCGAGGC | 0.0775 |
| CGTAGTTC | -0.157 |
| GGTTAAAC | 0.00336 |
| AGCGAGAT | -0.00455 |
| CGAGCACG | -0.175 |
| GCAAACCA | 0.0271 |
| ATCGCTTC | 0.0398 |
| CTTAAGGC | -0.2 |
| CTGTTCAC | -0.0749 |
| CATCAATG | 0.00427 |
| CACTGACA | 0.202 |
| AAAGTCTG | 0.177 |
| CTCCGGTA | -0.0362 |
| TCAGCTCA | -0.149 |
| ATGCTTCC | -0.0466 |
| ATTACCCG | 0.0195 |
| CTCCGCTC | -0.0101 |
| ACACGGCA | 0.0639 |
| ACACCTGA | 0.0184 |
| ACAGGCAG | -0.0702 |
| AAGGAATC | -0.0672 |

| Sequence | PBM E-score |
| --- | --- |
| GTTAGCGA | 0.228 |
| GCCTTCTA | -0.262 |
| AGCCTCAA | -0.187 |
| ACCTTATC | -0.0985 |
| AAGACGGT | -0.288 |
| CCGGTGGC | -0.24 |
| GTTGTGCA | -0.111 |
| CCCACCCG | -0.0243 |
| AACTTCGT | -0.136 |
| GTTTTTGA | -0.00866 |
| ACCCAATG | -0.214 |
| ACGGCATC | -0.0778 |
| ATGTACTC | 0.124 |
| GCTTCCAA | -0.0663 |
| AAATTCTA | 0.0189 |
| ACGGATCA | 0.102 |
| CCGGTATA | 0.12 |
| AGCGGCGA | -0.0831 |
| GCTTTGCC | -0.351 |
| AGTCAATA | 0.0732 |
| TTAACTAA | 0.237 |
| TCCCCACA | -0.272 |
| GCAAAGTA | -0.00765 |
| AACCTGGG | -0.208 |
| AAGGTTGT | 0.152 |

| Sequence | PBM E-score |
| --- | --- |
| CCCGCACA | -0.111 |
| GGGTTCTA | -0.239 |
| AAAGCTTG | -0.0281 |
| AGTGAGGA | -0.0425 |
| AAAAGCCC | -0.0247 |
| AATACCCT | -0.184 |
| CATACGAG | -0.191 |
| CTTCTATA | 0.0349 |
| GCGCAGGA | -0.168 |
| CCTTACCC | -0.265 |
| CGGGCACA | -0.0904 |
| CTCCAGGA | -0.147 |
| GCCGATAA | 0.0805 |
| AACATGTT | -0.0343 |
| CACGGAGA | 0.0495 |
| TAAAATCA | 0.14 |
| CGACCGCC | -0.1 |
| TAATTGGA | 0.123 |
| AAGTTTCG | -0.0881 |
| AAGTGATA | -0.052 |
| ACCTCAAT | 0.0935 |
| CGAATATA | 0.107 |
| CGATCAGA | -0.194 |
| AGTACTTG | 0.147 |
| TTCAGAAA | 0.128 |

| Sequence | PBM E-score |
| --- | --- |
| CAAGCCTC | -0.152 |
| CCAAACCC | -0.00239 |
| AACAGGCC | -0.14 |
| ATGTAATG | 0.111 |
| CGGGGCGC | -0.188 |
| ACGGCGGG | -0.105 |
| GGAGCAAA | 0.0273 |
| ATGCGCAG | -0.106 |
| ATAGGATA | 0.0217 |
| AGTCCCTA | 0.123 |
| GGGTCAAA | -0.0608 |
| GTTTCCAA | -0.0509 |
| CTAACAAC | 0.139 |
| ACGTATAG | 0.0562 |
| GACTAAAA | 0.23 |
| AACTTACC | -0.0315 |
| ATGCGGCA | -0.0525 |
| AAAGTAGA | -0.042 |
| GATCGCTA | -0.0252 |
| GCACTGGA | -0.0294 |
| GCCAATCC | -0.122 |
| CTCAGGGA | -0.218 |
| CTCGACGA | -0.0478 |
| CCTGCTCG | -0.177 |
| AGAGTGCC | -0.0595 |

| Sequence | PBM E-score |
| --- | --- |
| GCAATTTA | 0.0402 |
| CGGCGGAG | -0.0611 |
| CTAAGGGC | -0.154 |
| GTCTAATA | -0.0152 |
| TCGGGAAA | 0.176 |
| TATGATAA | 0.179 |
| AAACGCAT | -0.0841 |
| CCATCCGA | -0.00896 |
| ATTTGACA | 0.187 |
| ATAATCAA | 0.121 |
| CCCGACTA | -0.127 |
| CGGATAAA | 0.12 |
| CGCTCTAC | -0.0195 |
| ACTTTACA | -0.0742 |
| TATTGGAA | -0.0155 |
| ATTGCCGG | -0.0182 |
| CAGCGCAC | -0.04 |
| AGGCTCGG | -0.224 |
| GTCTGATA | 0.158 |
| AGAAACCG | -0.0471 |
| GCAGGGGC | -0.233 |
| ACAAACGC | 0.172 |
| CGAACCCG | -0.196 |
| CAATAGGA | 0.112 |
| ACGCCGAA | 0.177 |

| Sequence | PBM E-score |
| --- | --- |
| CGAAACCA | 0.147 |
| ACCGATAT | -0.0498 |
| CATCAATA | 0.1 |
| AACATTAC | -0.108 |
| AAGAGACT | -0.0952 |
| CCATTCGG | 0.0398 |
| AACAACAC | -0.00375 |
| CTCGGTAA | 0.129 |
| AGATATCT | 0.146 |
| ACTAGGGA | 0.00908 |
| ACTACCAT | 0.0464 |
| AGATGGGC | -0.168 |
| TAGTAATA | 0.104 |
| AAGCTTAT | 0.111 |
| AATTAAAC | 0.166 |
| CACGAATA | 0.0663 |
| CAAAGTAC | 0.0575 |
| GCAAGGAA | -0.122 |
| AGGCTTAG | -0.0844 |
| GCGTCTAC | -0.0433 |
| ACCCGTAT | 0.0862 |
| AGATTCTA | -0.0122 |
| ATACTACG | -0.0292 |
| AGCGGGCG | -0.0758 |
| CAGCCATC | -0.215 |

| Sequence | PBM E-score |
| --- | --- |
| ACCACTTA | -0.0118 |
| GCAGGAGA | -0.266 |
| CAGGTCGG | 0.01 |
| CTTATTGA | 0.0963 |
| GACCCAGC | -0.279 |
| CTATCCGC | 0.127 |
| ATGATAAG | 0.00016 |
| AATAAGGT | -0.091 |
| ACAAGCGT | 0.0435 |
| ATCTAGGA | 0.18 |
| ATTCCGCC | 0.2 |
| CAAACAGA | 0.147 |
| CGGCTCCA | -0.109 |
| ACCAATTC | -0.044 |
| CCAGTGCG | -0.278 |
| CATGTTGC | -0.195 |
| ATCTTTAG | -0.0847 |
| CGATGACC | 0.0689 |
| CGTCCTGC | -0.235 |
